From publication PMC6919601, “Identification of Plasmodium dipeptidyl aminopeptidase allosteric inhibitors by high throughput screening” (PLoS ONE, 2019)
Values joined by “and” are separate entries in the source; they are usually repeats but may differ in a detail not shown here. Identical values can stand only once. In all, about 110,000 compounds went through this assay and about 230 (0.21%) showed an effect of 50% or more. The list shows a part of the results.

Target: DPAP1 (Plasmodium falciparum, UniProt Q8IIJ9)
Assay: primary screen, percent inhibition; read by cleavage of a fluorogenic dipeptide substrate; higher = more effect of the substance
Set-up: species or system P. falciparum D10 trophozoite lysates; single well
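Also: 30 min substrate incubation versus DMSO and 10 µM JCP410 controls.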

DPAP1, sequence (Q8IIJ9 whole entry, looked up): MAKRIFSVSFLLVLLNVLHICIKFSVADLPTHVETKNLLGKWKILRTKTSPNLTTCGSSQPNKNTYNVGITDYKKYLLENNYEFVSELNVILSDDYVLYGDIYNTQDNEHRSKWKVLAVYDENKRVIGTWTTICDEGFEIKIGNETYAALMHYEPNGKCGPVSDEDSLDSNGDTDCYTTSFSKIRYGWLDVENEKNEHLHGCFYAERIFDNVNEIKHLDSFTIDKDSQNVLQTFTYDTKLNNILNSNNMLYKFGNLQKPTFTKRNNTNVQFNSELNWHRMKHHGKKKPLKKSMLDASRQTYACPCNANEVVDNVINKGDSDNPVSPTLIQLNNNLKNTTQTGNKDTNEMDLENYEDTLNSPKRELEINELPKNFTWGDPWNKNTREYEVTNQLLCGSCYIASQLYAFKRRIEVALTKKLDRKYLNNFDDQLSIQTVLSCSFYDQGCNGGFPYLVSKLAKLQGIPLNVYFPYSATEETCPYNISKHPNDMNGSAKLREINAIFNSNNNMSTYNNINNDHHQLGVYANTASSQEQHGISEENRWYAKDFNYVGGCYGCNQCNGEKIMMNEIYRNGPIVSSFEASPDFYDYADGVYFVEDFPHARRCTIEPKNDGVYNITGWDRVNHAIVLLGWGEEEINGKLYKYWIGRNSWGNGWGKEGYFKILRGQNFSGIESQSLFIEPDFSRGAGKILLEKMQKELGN

First: COc1ccc(CNc2nc(-c3ccc(Cl)cc3)nn2C(=O)c2ccc(OC)cc2)cc1
Second: COc1ccc(-c2noc(CN(C(=O)Cc3ccc(Cl)cc3)C(C)C)n2)cc1
The “% Inhibition @ 10 uM” value of the first is higher: 3.93% for the first, -1.84% for the second.

Compared with `Cc1ccc(/C=C2\SC(Nc3ccc(Cl)cc3)=NC2=O)s1`, `Cc1ccc(Cl)cc1NC(=O)CC1S/C(=N\c2ccc(F)cc2)N(C)C1=O` (centres unmarked) is lower in “% Inhibition @ 10 uM” value: -1.43% for the first, -3.69% for the second.

Going from `O=S(=O)(c1ccc(Cl)cc1)N1CCN(S(=O)(=O)c2ccc(Cl)cc2)CC1` to `Fc1ccc(CN2CCN(c3ccccc3Cl)CC2)cc1F`, the “% Inhibition @ 10 uM” value falls from 2.05% to -1.92%.

Going from `O=C(NC1CCCCC1)C(Cc1ccccc1)NS(=O)(=O)c1cccs1` (centres unmarked) to `CC(NC(=O)C(=O)NCc1ccccn1)C(c1cccs1)N1CCN(Cc2ccccc2)CC1` (centres unmarked), the “% Inhibition @ 10 uM” value rises from 1.94% to 2.34%.

First: O=C(c1ccco1)N1CCN(Cc2nc3ccccc3c(=O)n2-c2ccc(F)cc2)CC1
Second: O=C(c1cc(-c2ccc(Br)cc2)nc2ccccc12)N1CCN(c2ncccn2)CC1
The “% Inhibition @ 10 uM” value of the first is higher: 1.94% for the first, -5.1% for the second.

Going from `Cc1ccc(OCC(=O)Nc2nc3ccccc3s2)c(C)c1` to `Cc1ccc(OCC(=O)NC(C)C)c(C)c1`, the “% Inhibition @ 10 uM” value rises from 0.331% to 5.12%.

Going from `O=C(CN1CCN(C(=O)c2ccco2)CC1)Nc1c2c(nc3c1CCC3)CCCC2` to `COc1cccc(-c2cc(C(=O)N3CCN(C(=O)c4ccco4)CC3)on2)c1`, the “% Inhibition @ 10 uM” value rises from -4.51% to 2.19%.

Going from `CN1C(=O)/C(=C/c2ccc(O)c(Cl)c2)S/C1=N/c1cccc(C(=O)O)c1` to `COc1ccccc1OCCN1C(=O)S/C(=C\c2ccc(N(C)C)cc2)C1=O`, the “% Inhibition @ 10 uM” value falls from 24.7% to -1.26%.

Compared with `COc1ccc(-c2cc3c4c(C)n(Cc5ccccc5)c(C)c4c(C)nn3c2)cc1`, `CCc1ccc(CNC(=O)C(C)n2nc(C)c3c(C)n(-c4ccccc4)nc3c2=O)cc1` (centres unmarked) is lower in “% Inhibition @ 10 uM” value: -2.92% for the first, -10.4% for the second.

First: O=C(CCN1C(=O)c2ccccc2C1=O)NCCc1ccccc1
Second: C=CCn1c(CNC(=O)Cc2ccccc2)nc2ccccc21
The “% Inhibition @ 10 uM” value of the first is higher: 1.42% for the first, -6.5% for the second.

Compared with `CC1CCN(C2=NC(=O)/C(=C/c3ccccc3F)S2)CC1`, `OC1CCN(c2ccc(-c3ccccc3)nn2)CC1` is lower in “% Inhibition @ 10 uM” value: 0.408% for the first, -2.97% for the second.

Going from `CC(C)(C)C(=O)Nc1cc(NC(=O)C(C)(C)C)cc(C(=O)O)c1` to `CC(C)(O)C(C)(C)C(O)c1ccccc1` (centres unmarked), the “% Inhibition @ 10 uM” value rises from -3.52% to 0.708%.

Compared with `COc1ccc(C(=O)NCc2ccc(C(=O)O)cc2)cc1OC`, `CCOc1ccc(CNC(=O)c2cc(O)nc3ccc(Br)cc23)cc1OC` is higher in “% Inhibition @ 10 uM” value: -0.256% for the first, 3.24% for the second.

First: CN(Cc1ccccc1)Cc1nc2c(c(=O)n(C)c(=O)n2C)n1Cc1ccc(F)cc1
Second: O=C(Nc1cccc(Cl)c1)N(Cc1ccccc1)Cc1ccccc1
The “% Inhibition @ 10 uM” value of the first is higher: 2.9% for the first, -2.56% for the second.

Compared with `CC1=NC(C(F)(F)F)(C(F)(F)F)C2=C(CC(C)(C)CC2=O)N1C(C)c1ccccc1` (centres unmarked), `Cc1nnc(SCC(=O)NC(C)c2ccccc2)c2nn(-c3ccccc3)c(C)c12` (centres unmarked) is higher in “% Inhibition @ 10 uM” value: -11.3% for the first, 4.56% for the second.

First: Cc1ccc(NC(=O)CSC(N)=O)cc1
Second: Cc1cccc(C(=O)Nc2ccc(F)cc2)c1
The “% Inhibition @ 10 uM” value of the first is higher: 1.44% for the first, -5.65% for the second.

First: CC1=CC2=NC(=O)/C(=C\c3ccc(Sc4ccccc4)o3)C(=N)N2O1
Second: Cc1cc(C=C2C(=O)c3ccccc3C2=O)c(C)n1-c1ccncc1
The “% Inhibition @ 10 uM” value of the first is higher: 0.317% for the first, -6.87% for the second.

Going from `CN1C(C(=O)NCc2cccs2)=CC(c2ccco2)=NS1(=O)=O` to `O=C(Nc1ccc(N2CCOCC2)cc1)c1ccco1`, the “% Inhibition @ 10 uM” value falls from -2.84% to -3.63%.

First: COc1ccc2oc(=O)c(C(=O)O)cc2c1
Second: CCCCCCN1C(=O)NC(=O)/C(=C\c2ccc(OC)cc2)C1=O
The “% Inhibition @ 10 uM” value of the first is lower: -2.41% for the first, 1.08% for the second.

Compared with `O=C(CSc1nc2ccccc2n1S(=O)(=O)c1ccccc1)N1CCCCC1`, `c1ccc2c(c1)CC(N1CCCCC1)c1ccccc1N2` (centres unmarked) is lower in “% Inhibition @ 10 uM” value: -0.318% for the first, -1.99% for the second.

Compared with `COc1ccc(Br)cc1C1CC(=O)N2CN(Cc3ccccc3)CSC2=C1C#N` (centres unmarked), `COc1ccc(NC(=O)c2ccccc2)cc1Cl` is lower in “% Inhibition @ 10 uM” value: 60.8% for the first, 1.64% for the second.

Compared with `COc1ccc(C2C(C#N)=C(C)N=C3CC(c4ccc(Cl)cc4)CC(O)=C32)cc1` (centres unmarked), `COc1ccc(-c2ccc3c(N)c(C(=O)Nc4ccc5c(c4)OCCO5)sc3n2)cc1` is lower in “% Inhibition @ 10 uM” value: 0.673% for the first, -3.58% for the second.

Compared with `COc1ccc(CN2CCN(c3c(-c4ccc(Cl)cc4)c(=O)c3=O)CC2)c(OC)c1OC`, `COc1ccc(N2CCN(Cc3cc(C)ccc3C)CC2)cc1` is higher in “% Inhibition @ 10 uM” value: -6.11% for the first, -2.81% for the second.

First: CCCNC(=O)c1ccc(CS(=O)c2ccc(C)cc2)o1 (centres unmarked)
Second: Cc1ccc(OCc2nc(-c3ccc(C(=O)NC4CCCC4)cc3)oc2C)cc1
The “% Inhibition @ 10 uM” value of the first is higher: 1.5% for the first, -5.73% for the second.

First: CCc1c(C)c2cc3c4c(oc3cc2oc1=O)CCCC4
Second: O=C(NCC1COc2ccccc2O1)c1ccc2c(Cl)c3c(nc2c1)CCCC3 (centres unmarked)
The “% Inhibition @ 10 uM” value of the first is lower: -1.15% for the first, -0.0593% for the second.

Going from `Cc1cccc(Oc2nc3ccccn3c(=O)c2/C=C(\C#N)C(=O)NCCCOC(C)C)c1C` to `COc1ccc(CCN(C)CC(=O)Nc2cc(C)nc3ccccc23)cc1OC`, the “% Inhibition @ 10 uM” value falls from 0.315% to -5.47%.

First: COc1ccccc1NC(=O)Cc1ccc(Cl)cc1
Second: CC(=O)N1CCc2c([nH]c3ccccc23)C1c1ccc(Cl)cc1 (centres unmarked)
The “% Inhibition @ 10 uM” value of the first is lower: -4.7% for the first, 0.815% for the second.

First: Cc1ccc(OCC(=O)NC2CCS(=O)(=O)C2)cc1 (centres unmarked)
Second: O=C(COc1ccc(Cl)cc1)NCCN1CCCC1
The “% Inhibition @ 10 uM” value of the first is higher: 4.98% for the first, -1.82% for the second.

First: CCC(C(=O)NCc1ccc(OC(C)C)cc1)n1sc2ccccc2c1=O (centres unmarked)
Second: CC(C)Oc1ccc(C2CC(=O)N(c3ccccc3)C2=O)cc1 (centres unmarked)
The “% Inhibition @ 10 uM” value of the first is lower: -5.1% for the first, -2.37% for the second.

First: C=CCn1c(CSc2nc3ccccc3s2)nnc1SCC(=O)NCc1ccccc1
Second: CC(NC(=O)CSC1=NC(=O)C(c2ccccc2)C(=O)N1)c1ccccc1 (centres unmarked)
The “% Inhibition @ 10 uM” value of the first is lower: -4.97% for the first, 4.65% for the second.

Going from `O=C(O)c1ccccc1-c1ccccc1C(=O)Nc1cccc2ccccc12` to `O=C(NCc1ccco1)C(c1ccccc1)c1ccccc1`, the “% Inhibition @ 10 uM” value falls from 6.15% to 0.431%.

Going from `O=C(O)C1Nc2c(cccc2C(F)(F)F)C2C=CCC12` (centres unmarked) to `O=C(/C=C/c1ccccc1Cl)N(Cc1cccc(F)c1)C1CCS(=O)(=O)C1` (centres unmarked), the “% Inhibition @ 10 uM” value falls from 0.345% to -6.85%.

Compared with `CC(C)COc1ccc(C(=O)N2c3ccccc3CC2C)cc1` (centres unmarked), `COc1ccccc1N1CCN(C(=O)c2ccc([N+](=O)[O-])cc2)CC1` is higher in “% Inhibition @ 10 uM” value: -3.5% for the first, -1.38% for the second.

Compared with `Cc1cc(C)c(C#N)c(SCC(=O)Nc2c(C)cccc2C)n1`, `N#Cc1cc([N+](=O)[O-])cnc1SCC(=O)Nc1ccccc1` is higher in “% Inhibition @ 10 uM” value: -6.38% for the first, 0.0345% for the second.

Compared with `SC1=C2CCCCC2=NC2(CCCCC2)S1`, `CC(=O)N1N=C(c2ccc(C)c(Cl)c2)OC12CCCC2` is higher in “% Inhibition @ 10 uM” value: 0.222% for the first, 2.38% for the second.

Compared with `CCn1c(SCC(N)=O)nnc1-c1cc(OC)c(OC)c(OC)c1`, `COc1cc(C(=O)Nc2nnc(CSCc3ccccc3)s2)cc(OC)c1OC` is higher in “% Inhibition @ 10 uM” value: -4.97% for the first, 9.39% for the second.

First: Cc1cc(C)n(C(=O)c2cc([N+](=O)[O-])ccc2Cl)n1
Second: CC(=O)c1c(C)oc2c1cc(NS(=O)(=O)c1ccc(Cl)cc1)c1ccccc12
The “% Inhibition @ 10 uM” value of the first is lower: -1.97% for the first, 4.08% for the second.

Compared with `Oc1nc(/C=C/c2cc3c(cc2Cl)OCO3)cc(C(F)(F)F)n1`, `CN(CCCn1cnc2c3cc(Cl)ccc3nc-2c1O)C1CCCCC1` is lower in “% Inhibition @ 10 uM” value: 0.392% for the first, -3.75% for the second.

First: CCCOc1ccc(C2C(C(=O)OCc3ccccc3)=C(C)N=C3SCCC(=O)N32)cc1 (centres unmarked)
Second: Cc1cc2c(cc3c(=O)n(CC(=O)NCc4ccccc4)ncn32)o1
The “% Inhibition @ 10 uM” value of the first is lower: 4.85% for the first, 4.95% for the second.

Compared with `CN(C)CCCN(C(=O)C1COc2ccccc2O1)c1nc2c(F)cccc2s1` (centres unmarked), `CC(C)C[C@H](NC(=O)OCC1COc2ccccc2O1)C(=O)NCC#N` (some centres unmarked) is lower in “% Inhibition @ 10 uM” value: -1.07% for the first, -6.46% for the second.

Going from `CC1=C(C)CC(C(=O)NC2CCCC2)C(C(=O)O)C1` (centres unmarked) to `CC(=O)N1CCC2(CC1)OC(=O)C(C)=C2C(=O)NCCC(C)C`, the “% Inhibition @ 10 uM” value rises from -4.15% to -1.04%.

First: CC(C)N(Cc1ccccc1)C(=O)c1cc(S(=O)(=O)N2CCCC2)cn1C
Second: COc1ccc(Cl)cc1N(CC(=O)NCC1CCCO1)S(=O)(=O)c1ccccc1 (centres unmarked)
The “% Inhibition @ 10 uM” value of the first is lower: -3.77% for the first, -0.088% for the second.

Compared with `Cc1ccc(-n2nc3c(=O)n(CC(=O)NCc4ccccc4Cl)nc(C)c3c2C)c(C)c1`, `O=C(NCc1cccnc1)c1cc2ccc3cccnc3c2[nH]1` is lower in “% Inhibition @ 10 uM” value: 3.24% for the first, -5.57% for the second.

First: Cc1sc(NC(=O)CCCC(=O)O)c(C(N)=O)c1-c1ccccc1
Second: O=C(O)C(Cc1c[nH]cn1)N1C(=O)c2ccccc2C1=O (centres unmarked)
The “% Inhibition @ 10 uM” value of the first is lower: -1.07% for the first, 5.54% for the second.

First: COC(=O)C1=C(C)N(CCC2=CCCCC2)C(=O)/C1=C\c1ccc(C(=O)OC)cc1
Second: Cc1ccc(N(Cc2ccc(C(=O)Nc3ccc4c(c3)OCO4)cc2)S(C)(=O)=O)cc1C
The “% Inhibition @ 10 uM” value of the first is lower: -3.33% for the first, 8.06% for the second.

Compared with `CCCN1CCN(CCCNC(=O)c2cnn(-c3ccccc3)c2-n2cccc2)CC1`, `CCOc1ccccc1N(CC(=O)N1CCN(c2ccccc2)CC1)S(=O)(=O)c1ccc(C)cc1` is higher in “% Inhibition @ 10 uM” value: -3.35% for the first, 6.86% for the second.

Compared with `CCCN1CCC(NCCc2ccccc2OC)CC1`, `CCn1c(C)nc2c1C(=O)c1ccccc1C2=O` is higher in “% Inhibition @ 10 uM” value: -4.14% for the first, 1.63% for the second.

First: O=C(c1sc2cc(Cl)ccc2c1Cl)N1CCCC1
Second: COc1ccc(Cl)cc1C(=O)Nc1sc2c(c1C#N)CCC2
The “% Inhibition @ 10 uM” value of the first is higher: 1.37% for the first, -4.76% for the second.

For `COc1cc(/C=N/N=C(\C)c2nnn(-c3nonc3N)c2C)ccc1O`, the “% Inhibition @ 10 uM” value was -1.68%.

For `CS(=O)(=O)N(CC(=O)Nc1ccc(S(=O)(=O)Nc2ccccc2)cc1)c1cccc(F)c1`, the “% Inhibition @ 10 uM” value was 2.44% and -0.884%.
